# The other results are listed elsewhere or left out.
# B1: CwpV (Clostridium difficile), B6EFG6 (protein)
# chain: MKIPKKIAAMLTVTMIAGSSTAGIASAQTVATNLTGQERYETAVKISQDGWKNADEVVIVNDSSIADALSATPFAKAKNAPILLTSKDKLNDKTKAEIQRLKAKKVYLIGGTSVLSTNIEKEIKDLKISFERISGAERYQTSLELAKKLDAISDVKKIAVVNGEKGLADAVSVGAPAAQNNMPVILADSKNGTAVADKFIKDAGITQSYVVGGESSISEAVKNKLPNSTRLGGTDRNDTNAKVIKEFYKKTDLKNAYVTKDGMNKQDQLIDALAVGVLGAKNQSPVVLVGKNLSASQKSLVNSKSFDKITKVGGNGNETAFNEMKSLQEVKTVEAKTISELKSAIDKATANDVINFKPTSEVKEAFTIQTDKAVTVNLNGTYTKTVTINMPNGDVNNYAKVDDVVIDDVKDGTFVNYGKITNLKVNDKNGAKIENNSKGEIGSLTVASGASQVKVTNGGKITTVTNNSKGTTIDNKGTISSVKGDNSPTISGNSPSSNSSGGSSSSGGSSGGSSGGSSSSKVGQIKFSATDKQIKMASGDKTVDPSDNTYILKLTNGTVKDGDVKANVKVAGLPSGLDYTAVGNRSANTITITVSGTTSQSIQNDLNNVSVLVKAGAVSGTGATDSIANTTFEIKKYVAAPAVGQLTFDATDKQIKMASGDKTVDPSDDTYVLTLTKGTAKDGDIKANVEVTGLPSGLDYTAEGDSSANTITIPVSGTASPAVQTDLDNVSVLVKAGAVSETTATDSAANATFEVKKYVAPAVGQLTFDATDKQIKMASGDKTVDPSDDTYVLTLTKGTAKDGDIKANVEVTGLPSGLDYTAEGDSSANTITITVSGTASQAVQTDLDNVSVLVKAGAVSETTATDSAANATFEVKKYVAPAIGQLTFDATDKQIKMASGDKTVDPSDDTYVLTLTKGTAKDGDIKANVEVTGLPSGLDYTAEGDSSANTITITVSGTASQAVQTDLDNVSVLVKAGAVSETTATDSAANATFEVKKHASDPISTIGKISSGLSSLFNILK
# Key:
# Test in all cases: glycan array binding signal (z-score within array); higher = stronger binding
# Settings in all cases: glycan notation: IUPAC condensed, linker removed
# [1] = target: Fuc(a1-2)Gal
# Procedure, shortened: (§1)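 Glycan array data came from 3228 arrays in the Consortium for Functional Glycomics database, and only arrays with an available protein sequence were kept. Glycan names were put into IUPAC-condensed notation, and columns mapping to the same glycan were averaged. The binding signal is a within-array Z-score, averaged across arrays of one protein sequence run at different concentrations or buffers and across linkers. A negative Z-score can be read as non-binding.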
# [2] = target: Fuc(a1-2)Gal(b1-3)GalNAc
# Procedure, shortened: as §1
# [3] = target: Fuc(a1-2)Gal(b1-3)GalNAc(a1-3)[Fuc(a1-2)]Gal(b1-4)Glc
# Procedure, shortened: as §1
# [4] = target: Fuc(a1-2)Gal(b1-3)GalNAc(a1-3)[Fuc(a1-2)]Gal(b1-4)GlcNAc
# Procedure, shortened: as §1
# [5] = target: Fuc(a1-2)Gal(b1-3)GalNAc(b1-3)Gal
# Procedure, shortened: as §1
# [6] = target: Fuc(a1-2)Gal(b1-3)GalNAc(b1-3)Gal(a1-4)Gal(b1-4)Glc
# Procedure, shortened: as §1
# [7] = target: Fuc(a1-2)Gal(b1-3)GalNAc(b1-4)[Neu5Ac(a2-3)]Gal(b1-4)Glc
# Procedure, shortened: as §1
# [8] = target: Fuc(a1-2)Gal(b1-3)GlcNAc
# Procedure, shortened: as §1
# [9] = target: Fuc(a1-2)Gal(b1-3)GlcNAc(b1-2)Man(a1-3)[Fuc(a1-2)Gal(b1-3)GlcNAc(b1-2)Man(a1-6)]Man(b1-4)GlcNAc(b1-4)GlcNAc
# Procedure, shortened: as §1
# [10] = target: Fuc(a1-2)Gal(b1-3)GlcNAc(b1-2)Man(a1-3)[Fuc(a1-2)Gal(b1-3)GlcNAc(b1-2)Man(a1-6)]Man(b1-4)GlcNAc(b1-4)[Fuc(a1-6)]GlcNAc
# Procedure, shortened: as §1
# [11] = target: Fuc(a1-2)Gal(b1-3)GlcNAc(b1-3)Gal(b1-4)Glc
# Procedure, shortened: as §1
# [12] = target: Fuc(a1-2)Gal(b1-3)GlcNAc(b1-3)GalNAc
# Procedure, shortened: as §1
# [13] = target: Fuc(a1-2)Gal(b1-3)GlcNAc(b1-3)[Fuc(a1-3)[Gal(b1-4)]GlcNAc(b1-6)]Gal(b1-4)Glc
# Procedure, shortened: as §1
# [14] = target: Fuc(a1-2)Gal(b1-3)GlcNAc(b1-3)[Gal(b1-4)GlcNAc(b1-6)]Gal(b1-4)Glc
# Procedure, shortened: as §1
# [15] = target: Fuc(a1-2)Gal(b1-3)[Fuc(a1-4)]GlcNAc
# Procedure, shortened: as §1
# [16] = target: Fuc(a1-2)Gal(b1-3)[Fuc(a1-4)]GlcNAc(b1-2)Man(a1-3)[Fuc(a1-2)Gal(b1-3)[Fuc(a1-4)]GlcNAc(b1-2)Man(a1-6)]Man(b1-4)GlcNAc(b1-4)GlcNAc
# Procedure, shortened: as §1
# [17] = target: Fuc(a1-2)Gal(b1-3)[Fuc(a1-4)]GlcNAc(b1-3)[Fuc(a1-3)[Gal(b1-4)]GlcNAc(b1-6)]Gal(b1-4)Glc
# Procedure, shortened: as §1
# [18] = target: Fuc(a1-2)Gal(b1-3)[Fuc(a1-4)]GlcNAc(b1-3)[Gal(b1-4)GlcNAc(b1-6)]Gal(b1-4)Glc
# Procedure, shortened: as §1
# [19] = target: Fuc(a1-2)Gal(b1-4)Glc
# Procedure, shortened: as §1
# [20] = target: Fuc(a1-2)Gal(b1-4)Glc6S
# Procedure, shortened: as §1
# [21] = target: Fuc(a1-2)Gal(b1-4)GlcNAc
# Procedure, shortened: as §1
# [22] = target: Fuc(a1-2)Gal(b1-4)GlcNAc(b1-2)Man(a1-3)[Fuc(a1-2)Gal(b1-4)GlcNAc(b1-2)Man(a1-6)]Man(b1-4)GlcNAc(b1-4)GlcNAc
# Procedure, shortened: as §1
# [23] = target: Fuc(a1-2)Gal(b1-4)GlcNAc(b1-2)Man(a1-3)[Fuc(a1-2)Gal(b1-4)GlcNAc(b1-2)Man(a1-6)]Man(b1-4)GlcNAc(b1-4)[Fuc(a1-6)]GlcNAc
# Procedure, shortened: as §1
# [24] = target: Fuc(a1-2)Gal(b1-4)GlcNAc(b1-2)[Fuc(a1-2)Gal(b1-4)GlcNAc(b1-4)]Man(a1-3)[Fuc(a1-2)Gal(b1-4)GlcNAc(b1-2)Man(a1-6)]Man(b1-4)GlcNAc(b1-4)GlcNAc
# Procedure, shortened: as §1
# [25] = target: Fuc(a1-2)Gal(b1-4)GlcNAc(b1-3)Gal(b1-4)GlcNAc
# Procedure, shortened: as §1
# [26] = target: Fuc(a1-2)Gal(b1-4)GlcNAc(b1-3)Gal(b1-4)GlcNAc(b1-3)Gal(b1-4)GlcNAc
# Procedure, shortened: as §1
# [27] = target: Fuc(a1-2)Gal(b1-4)GlcNAc(b1-3)GalNAc
# Procedure, shortened: as §1
# [28] = target: Fuc(a1-2)Gal(b1-4)GlcNAc6S
# Procedure, shortened: as §1
# [29] = target: Fuc(a1-2)Gal(b1-4)[Fuc(a1-3)]GlcNAc
# Procedure, shortened: as §1
# [30] = target: Fuc(a1-2)Gal(b1-4)[Fuc(a1-3)]GlcNAc(b1-2)Man(a1-3)[Fuc(a1-2)Gal(b1-4)[Fuc(a1-3)]GlcNAc(b1-2)Man(a1-6)]Man(b1-4)GlcNAc(b1-4)GlcNAc
# Procedure, shortened: as §1
binder,measurement,setting,value
B1,glycan array binding signal (z-score),[1],-0.289
same,glycan array binding signal (z-score),[2],-0.257
same,glycan array binding signal (z-score),[3],-0.253
same,glycan array binding signal (z-score),[4],-0.306
same,glycan array binding signal (z-score),[5],0.238
same,glycan array binding signal (z-score),[6],2.48
same,glycan array binding signal (z-score),[7],-0.26
same,glycan array binding signal (z-score),[8],-0.328
same,glycan array binding signal (z-score),[9],0.672
same,glycan array binding signal (z-score),[10],0.535
same,glycan array binding signal (z-score),[11],-0.266
same,glycan array binding signal (z-score),[12],-0.285
same,glycan array binding signal (z-score),[13],-0.325
same,glycan array binding signal (z-score),[14],-0.315
same,glycan array binding signal (z-score),[15],-0.318
same,glycan array binding signal (z-score),[16],-0.178
same,glycan array binding signal (z-score),[17],-0.222
same,glycan array binding signal (z-score),[18],0.041
same,glycan array binding signal (z-score),[19],-0.302
same,glycan array binding signal (z-score),[20],-0.152
same,glycan array binding signal (z-score),[21],-0.242
same,glycan array binding signal (z-score),[22],0.321
same,glycan array binding signal (z-score),[23],-0.341
same,glycan array binding signal (z-score),[24],-0.132
same,glycan array binding signal (z-score),[25],0.358
same,glycan array binding signal (z-score),[26],0.616
same,glycan array binding signal (z-score),[27],0.354
same,glycan array binding signal (z-score),[28],-0.174
same,glycan array binding signal (z-score),[29],-0.281
same,glycan array binding signal (z-score),[30],0.828
